# Data taken from the supplement of paper PMC8728848.
# This is one part of the list.
# What was measured:
# Test in all cases: glycan array binding signal (z-score within array); higher = stronger binding
# Conditions in all cases: glycan notation: IUPAC condensed, linker removed
# Fuc(a1-3)GlcNAc = molecular target: Fuc(a1-3)GlcNAc
# Outline: (§1)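 Arrays were curated from the Consortium for Functional Glycomics database, 3228 in total, and kept only where the protein sequence was available. Binding is expressed as a within-array Z-score. This score was averaged across arrays of the same protein sequence at different concentrations or buffers and across linkers, and negative values can be read as non-binding.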
# [1] = molecular target: Fuc(a1-3)[Gal(b1-4)]Glc6S
# Outline: as §1
# [2] = molecular target: Fuc(a1-3)[Gal(b1-4)]GlcNAc
# Outline: as §1
# [3] = molecular target: Fuc(a1-3)[Gal(b1-4)]GlcNAc(b1-2)Man
# Outline: as §1
# [4] = molecular target: Fuc(a1-3)[Gal(b1-4)]GlcNAc(b1-2)Man(a1-3)[Fuc(a1-3)[Gal(b1-4)]GlcNAc(b1-2)Man(a1-6)]Man(b1-4)GlcNAc(b1-4)GlcNAc
# Outline: as §1
# [5] = molecular target: Fuc(a1-3)[Gal(b1-4)]GlcNAc(b1-2)Man(a1-3)[Fuc(a1-3)[Gal(b1-4)]GlcNAc(b1-2)Man(a1-6)]Man(b1-4)GlcNAc(b1-4)[Fuc(a1-6)]GlcNAc
# Outline: as §1
# [6] = molecular target: Fuc(a1-3)[Gal(b1-4)]GlcNAc(b1-3)Gal(b1-3)[Fuc(a1-4)]GlcNAc
# Outline: as §1
# [7] = molecular target: Fuc(a1-3)[Gal(b1-4)]GlcNAc(b1-3)Gal(b1-4)[Fuc(a1-3)]GlcNAc
# Outline: as §1
# [8] = molecular target: Fuc(a1-3)[Gal(b1-4)]GlcNAc(b1-3)Gal(b1-4)[Fuc(a1-3)]GlcNAc(b1-3)Gal(b1-4)[Fuc(a1-3)]GlcNAc
# Outline: as §1
# [9] = molecular target: Fuc(a1-3)[Gal(b1-4)]GlcNAc(b1-3)GalNAc
# Outline: as §1
# [10] = molecular target: Fuc(a1-3)[Gal(b1-4)]GlcNAc(b1-6)GalNAc
# Outline: as §1
# [11] = molecular target: Fuc(a1-3)[Gal(b1-4)]GlcNAc(b1-6)[Gal(b1-3)GlcNAc(b1-3)]Gal(b1-4)Glc
# Outline: as §1
# [12] = molecular target: Fuc(a1-3)[Gal(b1-4)]GlcNAc6S
# Outline: as §1
# [13] = molecular target: Fuc(a1-3)[Gal3S(b1-4)]Glc
# Outline: as §1
# [14] = molecular target: Fuc(a1-3)[Gal3S(b1-4)]GlcNAc
# Outline: as §1
# [15] = molecular target: Fuc(a1-3)[Gal3S(b1-4)]GlcNAc6S
# Outline: as §1
# [16] = molecular target: Fuc(a1-3)[GalNAc(b1-4)]GlcNAc
# Outline: as §1
# [17] = molecular target: Fuc(a1-3)[GalNAc(b1-4)]GlcNAc6S
# Outline: as §1
# Fuc(a1-4)GlcNAc = molecular target: Fuc(a1-4)GlcNAc
# Outline: as §1
# Fuc(b1-3)GlcNAc = molecular target: Fuc(b1-3)GlcNAc
# Outline: as §1
# Gal(a1-2)Gal = molecular target: Gal(a1-2)Gal
# Outline: as §1
# Gal(a1-3)Gal = molecular target: Gal(a1-3)Gal
# Outline: as §1
# Gal(a1-3)Gal(b1-3)GlcNAc = molecular target: Gal(a1-3)Gal(b1-3)GlcNAc
# Outline: as §1
# [18] = molecular target: Gal(a1-3)Gal(b1-3)GlcNAc(b1-2)Man
# Outline: as §1
# [19] = molecular target: Gal(a1-3)Gal(b1-3)GlcNAc(b1-2)Man(a1-3)[Gal(a1-3)Gal(b1-3)GlcNAc(b1-2)Man(a1-6)]Man(b1-4)GlcNAc(b1-4)GlcNAc
# Outline: as §1
# [20] = molecular target: Gal(a1-3)Gal(b1-3)GlcNAc(b1-3)GalNAc
# Outline: as §1
# [21] = molecular target: Gal(a1-3)Gal(b1-3)GlcNAc(b1-6)GalNAc
# Outline: as §1
# [22] = molecular target: Gal(a1-3)Gal(b1-3)[Fuc(a1-4)]GlcNAc(b1-2)Man(a1-3)[Gal(a1-3)Gal(b1-3)[Fuc(a1-4)]GlcNAc(b1-2)Man(a1-6)]Man(b1-4)GlcNAc(b1-4)GlcNAc
# Outline: as §1
# Gal(a1-3)Gal(b1-4)Glc = molecular target: Gal(a1-3)Gal(b1-4)Glc
# Outline: as §1
# Gal(a1-3)Gal(b1-4)GlcNAc = molecular target: Gal(a1-3)Gal(b1-4)GlcNAc
# Outline: as §1
# [23] = molecular target: Gal(a1-3)Gal(b1-4)GlcNAc(b1-2)Man
# Outline: as §1
# [24] = molecular target: Gal(a1-3)Gal(b1-4)GlcNAc(b1-2)Man(a1-3)[Gal(a1-3)Gal(b1-4)GlcNAc(b1-2)Man(a1-6)]Man(b1-4)GlcNAc(b1-4)GlcNAc
# Outline: as §1
# [25] = molecular target: Gal(a1-3)Gal(b1-4)GlcNAc(b1-3)GalNAc
# Outline: as §1
# [26] = molecular target: Gal(a1-3)Gal(b1-4)GlcNAc(b1-6)GalNAc
# Outline: as §1
# [27] = molecular target: Gal(a1-3)Gal(b1-4)[Fuc(a1-3)]GlcNAc
# Outline: as §1
# [28] = molecular target: Gal(a1-3)Gal(b1-4)[Fuc(a1-3)]GlcNAc(b1-2)Man(a1-3)[Gal(a1-3)Gal(b1-4)[Fuc(a1-3)]GlcNAc(b1-2)Man(a1-6)]Man(b1-4)GlcNAc(b1-4)GlcNAc
# Outline: as §1
# Gal(a1-3)GalNAc = molecular target: Gal(a1-3)GalNAc
# Outline: as §1
# [29] = molecular target: Gal(a1-3)[Gal(a1-4)]Gal(b1-4)GlcNAc
# Outline: as §1
# [30] = molecular target: Gal(a1-4)Gal(b1-3)GlcNAc(b1-2)Man(a1-3)[Gal(a1-4)Gal(b1-3)GlcNAc(b1-2)Man(a1-6)]Man(b1-4)GlcNAc(b1-4)GlcNAc
# Outline: as §1
# Gal(a1-4)Gal(b1-4)Glc = molecular target: Gal(a1-4)Gal(b1-4)Glc
# Outline: as §1
# Gal(a1-4)Gal(b1-4)GlcNAc = molecular target: Gal(a1-4)Gal(b1-4)GlcNAc
# Outline: as §1
# [31] = molecular target: Gal(a1-4)Gal(b1-4)GlcNAc(b1-2)Man(a1-3)[Gal(a1-4)Gal(b1-4)GlcNAc(b1-2)Man(a1-6)]Man(b1-4)GlcNAc(b1-4)GlcNAc
# Outline: as §1
# [32] = molecular target: Gal(a1-4)Gal(b1-4)GlcNAc(b1-3)Gal(b1-4)Glc
# Outline: as §1
# Gal(a1-4)GlcNAc = molecular target: Gal(a1-4)GlcNAc
# Outline: as §1
# Gal(a1-6)Glc = molecular target: Gal(a1-6)Glc
# Outline: as §1
# Gal(b1-2)Gal = molecular target: Gal(b1-2)Gal
# Outline: as §1
# Gal(b1-3)Gal = molecular target: Gal(b1-3)Gal
# Outline: as §1
# Gal(b1-3)Gal(b1-4)GlcNAc = molecular target: Gal(b1-3)Gal(b1-4)GlcNAc
# Outline: as §1
# Gal(b1-3)GalNAc = molecular target: Gal(b1-3)GalNAc
# Outline: as §1
# [33] = molecular target: Gal(b1-3)GalNAc(a1-3)[Fuc(a1-2)]Gal(b1-4)Glc
# Outline: as §1
# [34] = molecular target: Gal(b1-3)GalNAc(a1-3)[Fuc(a1-2)]Gal(b1-4)GlcNAc
# Outline: as §1
# Gal(b1-3)GalNAc(b1-3)Gal = molecular target: Gal(b1-3)GalNAc(b1-3)Gal
# Outline: as §1
# [35] = molecular target: Gal(b1-3)GalNAc(b1-3)Gal(a1-4)Gal(b1-4)Glc
# Outline: as §1
# [36] = molecular target: Gal(b1-3)GalNAc(b1-4)Gal(b1-4)Glc
# Outline: as §1
# [37] = molecular target: Gal(b1-3)GalNAc(b1-4)[Neu5Ac(a2-3)]Gal(b1-4)Glc
# Outline: as §1
# Gal(b1-3)GlcNAc = molecular target: Gal(b1-3)GlcNAc
# Outline: as §1
# [38] = molecular target: Gal(b1-3)GlcNAc(a1-3)Gal(b1-4)GlcNAc
# Outline: as §1
# [39] = molecular target: Gal(b1-3)GlcNAc(a1-6)Gal(b1-4)GlcNAc
# Outline: as §1
# Gal(b1-3)GlcNAc(b1-2)Man = molecular target: Gal(b1-3)GlcNAc(b1-2)Man
# Outline: as §1
# [40] = molecular target: Gal(b1-3)GlcNAc(b1-2)Man(a1-3)[Gal(b1-3)GlcNAc(b1-2)Man(a1-6)]Man(b1-4)GlcNAc(b1-4)GlcNAc
# Outline: as §1
binder,measurement,setting,value
BT3172pd (Bacteroides thetaiotaomicron) (protein) MLPLRAEHYYYKQISLKEGLPSNVRCILRDEQGFIWIGTKAGLGKFDGHQLKRYKHQANDPHSLLHNLIYQIAEDKQHNIWILTEKGIARYQQQSNNFTFPTDEEGNYITAYSFCLVPDGILFGGKDRIYKYSYKDSSLRLLQYFNANSFKITALSVWDSKTLLCCSRWTGLYLVDLQTGEHRRPPFDCGPEITSMITDSKNRIWIAPYSGGLRCYSRDGKLSASYTTHNSSLSNDIVLSLAEREEQLWIGTDGGGINILHPETGEISQLEYIPGRENYSLPANSILCLHNDYNNNVWAGSTCNGLISIREVSMKTYTDVVPGNDRGLSNGTVRSLYRQSPDSIWIGTDGGGINLFSPHTEKFTHYSSTWGDKVAFISGFTPGKLLISLFSKGVFVFNPATGEKQPFTIIDKETTTRLCNRGKSVNLYQNTPNTVLFLGDHIYQYHLKEKKFSTITEEEGKDIVGTLVPFDHQENLTYINDIKHIYELDDQTSRLKTVFECYTDTVISSVSHDEQGHFWIGSNFGLIHYDPVLKSRTLVPTNLFTEINMVLCDQKGKVWIGVDNMLFAYFIKEQKFVLFGESNGAIQNEYLPNARLVNEQGDAYIGGVKGMLRIDGQLLLNTSEMPELQLLDITINGESANHEWYNHPAKISVPWNSNISIRIMSREEDIFRQKIYRYQIEGLNNEYTESYNPELVIRSLLPGSYRIMASCTAKDGSWIPDQQVLELTVLPPWYRTHHHHHH,glycan array binding signal (z-score),Fuc(a1-3)GlcNAc,-0.076
same,glycan array binding signal (z-score),[1],0.702
same,glycan array binding signal (z-score),[2],0.622
same,glycan array binding signal (z-score),[3],-0.76
same,glycan array binding signal (z-score),[4],0.229
same,glycan array binding signal (z-score),[5],2.04
same,glycan array binding signal (z-score),[6],-0.542
same,glycan array binding signal (z-score),[7],-0.266
same,glycan array binding signal (z-score),[8],-0.472
same,glycan array binding signal (z-score),[9],0.349
same,glycan array binding signal (z-score),[10],-0.071
same,glycan array binding signal (z-score),[11],-0.978
same,glycan array binding signal (z-score),[12],0.918
same,glycan array binding signal (z-score),[13],0.036
same,glycan array binding signal (z-score),[14],-0.009
same,glycan array binding signal (z-score),[15],-0.205
same,glycan array binding signal (z-score),[16],0.074
same,glycan array binding signal (z-score),[17],-0.042
same,glycan array binding signal (z-score),Fuc(a1-4)GlcNAc,0.252
same,glycan array binding signal (z-score),Fuc(b1-3)GlcNAc,-0.336
same,glycan array binding signal (z-score),Gal(a1-2)Gal,-0.237
same,glycan array binding signal (z-score),Gal(a1-3)Gal,-0.624
same,glycan array binding signal (z-score),Gal(a1-3)Gal(b1-3)GlcNAc,-0.655
same,glycan array binding signal (z-score),[18],1.83
same,glycan array binding signal (z-score),[19],-0.542
same,glycan array binding signal (z-score),[20],0.41
same,glycan array binding signal (z-score),[21],-0.133
same,glycan array binding signal (z-score),[22],0.822
same,glycan array binding signal (z-score),Gal(a1-3)Gal(b1-4)Glc,-0.327
same,glycan array binding signal (z-score),Gal(a1-3)Gal(b1-4)GlcNAc,-0.339
same,glycan array binding signal (z-score),[23],-0.075
same,glycan array binding signal (z-score),[24],-0.172
same,glycan array binding signal (z-score),[25],-0.017
same,glycan array binding signal (z-score),[26],-0.148
same,glycan array binding signal (z-score),[27],-0.344
same,glycan array binding signal (z-score),[28],2.4
same,glycan array binding signal (z-score),Gal(a1-3)GalNAc,-0.02
same,glycan array binding signal (z-score),[29],2.39
same,glycan array binding signal (z-score),[30],-0.406
same,glycan array binding signal (z-score),Gal(a1-4)Gal(b1-4)Glc,0.225
same,glycan array binding signal (z-score),Gal(a1-4)Gal(b1-4)GlcNAc,-0.091
same,glycan array binding signal (z-score),[31],0.102
same,glycan array binding signal (z-score),[32],0.357
same,glycan array binding signal (z-score),Gal(a1-4)GlcNAc,-0.146
same,glycan array binding signal (z-score),Gal(a1-6)Glc,0.025
same,glycan array binding signal (z-score),Gal(b1-2)Gal,-0.165
same,glycan array binding signal (z-score),Gal(b1-3)Gal,0.26
same,glycan array binding signal (z-score),Gal(b1-3)Gal(b1-4)GlcNAc,0.133
same,glycan array binding signal (z-score),Gal(b1-3)GalNAc,-0.494
same,glycan array binding signal (z-score),[33],-0.543
same,glycan array binding signal (z-score),[34],-0.781
same,glycan array binding signal (z-score),Gal(b1-3)GalNAc(b1-3)Gal,1.89
same,glycan array binding signal (z-score),[35],-0.415
same,glycan array binding signal (z-score),[36],0.005
same,glycan array binding signal (z-score),[37],-0.01
same,glycan array binding signal (z-score),Gal(b1-3)GlcNAc,0.277
same,glycan array binding signal (z-score),[38],-0.578
same,glycan array binding signal (z-score),[39],-0.458
same,glycan array binding signal (z-score),Gal(b1-3)GlcNAc(b1-2)Man,0.03
same,glycan array binding signal (z-score),[40],-0.433
